# Measured values as given in PubChem BioAssay AID1347428 (National Center for Advancing Translational Sciences (NCATS), 2020).
# Among all 91,000 compounds or so, about 290 (0.32%) were called active. Inconclusive means that the source gave no clear call. Such entries were picked first, then a sample of the others. Calls come from the whole dose curve; as a rule, active = well fitted inhibition curve with a large enough effect; inconclusive = small, poorly fitted or top-dose-only effect; inactive = no such curve, though single readings can be large or run the other way. A potency beside an inconclusive call is a rough fit, not a confirmed value.
# Target: Single-stranded DNA cytosine deaminase (Homo sapiens) (UniProt Q9GZX7)
# UniProt Q9GZX7, sequence (Q9GZX7 whole entry, looked up): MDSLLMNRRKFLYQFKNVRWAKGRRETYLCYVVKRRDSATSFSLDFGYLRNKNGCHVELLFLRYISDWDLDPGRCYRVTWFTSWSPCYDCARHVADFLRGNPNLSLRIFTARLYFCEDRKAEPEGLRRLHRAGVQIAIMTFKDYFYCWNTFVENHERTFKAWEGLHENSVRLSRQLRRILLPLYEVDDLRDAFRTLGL
# Test: Primary qHTS assay for inhibitors of Activation Induced Cytidine Deaminase (AID): AID signal; note: nearly all actives have a fitted effect of over 25% in size
# Conditions: AID deamination FRET fluorescence, UDG-coupled, 4 h; activity change, negative = inhibition: at 115 µM (top of the series)
# % is set by controls: 0 for no effect and ±100 for the full control effect; potency is the fitted concentration of half-maximal effect; tags give direction and shape of the fitted curve.
Structure (SMILES),Potency,"activity change, negative = inhibition"
COc1ccc(C)cc1NC(=O)c1c(C)oc2ncn(CC(C)C)c(=O)c12,"inconclusive: 25.1 µM [inhibitor, full curve]",
COc1ccccc1/C=C/C=C1\Oc2cc(OS(C)(=O)=O)ccc2C1=O,,inactive: -10.7%
CCCCCOc1c(Cl)cc(C(=O)N(Cc2ccc(C)o2)C2CCS(=O)(=O)C2)cc1Cl (stereo unspecified),"inconclusive: 31.6 µM [inhibitor, full curve]",
O=C(c1cc2c(s1)-c1ccccc1OC2)N1CCN(c2ccccc2F)CC1,"inconclusive: 15.8 µM [inhibitor, full curve, poor fit]",
CCOCc1ccc(CNC(=O)c2nccnc2N)cc1,,inactive: -8.03%
COc1ccccc1-c1nc2c(c(SCC(=O)Nc3ccc(C)c(C)c3)n1)Cc1c(CO)cnc(C)c1O2,"inconclusive: 79.4 µM [inhibitor, partial curve, poor fit]",
CCOC(=O)c1ccc(NC(=O)c2cnn(-c3ccc(C)cc3C)c2C2CCN(C(=O)OC(C)(C)C)CC2)cc1,"inconclusive: 15.8 µM [inhibitor, full curve, poor fit]",
O=C(NCC#Cc1ccccc1)c1ccc2nccnc2c1,,inactive: 25.2%
COc1ccc(NC(=O)C(C)n2cccn2)cc1Cl (stereo unspecified),,inactive: -1.4%
COc1cccc(-c2nc(CS(=O)(=O)CC(=O)NCCc3ccc(OC)cc3OC)c(C)o2)c1,"inconclusive: 20 µM [inhibitor, full curve, poor fit]",
Cc1ccc(-c2cc(C(=O)OCC(=O)NC(=O)NC(C)C)c3ccccc3n2)o1,,inactive: 5.79%
CCOc1cc(C(=O)Nc2ccc3nc(Nc4cccc(Cl)c4)cc(C)c3c2)cc(OCC)c1OCC,"inconclusive: 20 µM [inhibitor, partial curve, poor fit]",
Cc1nn2c(C)c(C(=O)N3CCN(c4ccccc4F)CC3)cnc2c1-c1ccc(F)cc1,"inconclusive: 22.4 µM [inhibitor, full curve, poor fit]",
CCc1nnc(SCc2cccc(F)c2)c2cc3sc(C)cc3n12,"inconclusive: 100 µM [inhibitor, partial curve, poor fit]",
COc1cc(OC)c(NC(=O)C(c2ccccc2)N2Cc3ccccc3C2=O)cc1Cl (stereo unspecified),"inconclusive: 50.1 µM [inhibitor, partial curve, poor fit]",
COC(=O)C1=C(C)N(c2cc(C)ccc2C)C(=S)NC1c1ccsc1 (stereo unspecified),,inactive: -10.5%
Cc1sc2ncnc(SCC(=O)Nc3ccc(CN4CCCC4)cc3)c2c1C,"inconclusive: 50.1 µM [inhibitor, partial curve, poor fit]",
CCCCOc1ccc(C(=O)N2CC(=O)Nc3ccc(Br)cc3C2c2ccc(F)cc2)cc1 (stereo unspecified),active: 35.5 µM,
COc1ccc(Br)cc1Cn1nnc(C(=O)Nc2ccc(C)cc2C)c1N,"inconclusive: 39.8 µM [inhibitor, partial curve]",
Cc1ccc(NC(=O)/C(C#N)=C\c2ccccc2OC(F)F)cc1,,inactive: -15.4%
COc1cc(/C=C/c2nc3ccccc3c(=O)n2-c2ccc(C(=O)O)cc2)ccc1O,,inactive: -1.96%
CCCCOc1ccc(C(=O)Nc2ccc(S(=O)(=O)Nc3nc(C)cc(C)n3)cc2)cc1,"inconclusive: 56.2 µM [inhibitor, partial curve, poor fit]",

Structure (SMILES),Potency,"activity change, negative = inhibition"
CC(C)C(=O)NC(=S)Nc1cccc(Cl)c1,,inactive: -2.79%
CN(C)CCN(Cc1ccccc1)S(=O)(=O)c1ccc(-c2cc(C(F)(F)F)on2)s1,"inconclusive: 39.8 µM [inhibitor, partial curve, poor fit]",
COc1ccc(-n2cc(C(=O)N(C)c3cc(C)ccc3OC)c3ccccc3c2=O)cc1,"inconclusive: 100 µM [inhibitor, single point]",
Cc1ccc(Cl)cc1N(C)C(=O)c1noc2c1CCCCC2,"inconclusive: 89.1 µM [inhibitor, single point]",
COc1ccccc1NC(=O)c1ccc(N2CCCN(Cc3ccccc3C)C2=O)cc1,"inconclusive: 56.2 µM [inhibitor, partial curve, poor fit]",
O=C(C1CCCN(S(=O)(=O)c2cccc3nonc23)C1)N1CCN(c2ccccc2Cl)CC1 (stereo unspecified),"inconclusive: 50.1 µM [inhibitor, partial curve, poor fit]",
O=C(O)c1cc([N+](=O)[O-])ccc1OC(F)F,,inactive: 1.42%
CCCCn1nnc(NC(=O)COc2ccc(C(C)(C)C)cc2)n1,,inactive: -2.28%
CC(NC(=O)CCCNC(=O)C1CC1)c1ccc(C#N)cc1 (stereo unspecified),,inactive: 4.75%
COc1cccc(CN(C(=O)c2ccc(C(C)(C)C)cc2)C2CCS(=O)(=O)C2)c1 (stereo unspecified),"inconclusive: 79.4 µM [inhibitor, partial curve, poor fit]",
O=C(CN1C(=O)C2(SCC(=O)N2c2cccc(F)c2)c2ccccc21)NCCc1ccccc1 (stereo unspecified),"inconclusive: 39.8 µM [inhibitor, single point]",
CCOc1ccc(C(=O)NCC(c2ccc(Cl)cc2)N2CCCCC2)cc1 (stereo unspecified),"inconclusive: 25.1 µM [inhibitor, partial curve, poor fit]",
O=C(c1ccc(Cl)cc1Cl)C(Br)C(O)C(Cl)(Cl)Cl (stereo unspecified),,inactive: -11.3%
CN(C)CCN(Cc1ccco1)C(=O)c1cc2c(s1)-c1ccccc1OC2,"inconclusive: 31.6 µM [inhibitor, single point]",
O=C(Nc1ccc(C(=O)N2CCN(c3ccccc3F)CC2)cc1)c1nsc2ccccc12,"inconclusive: 25.1 µM [inhibitor, full curve, poor fit]",
COc1ccc(-c2cn3cccnc3n2)cc1NC(=O)Nc1cc(C)ccc1C,"inconclusive: 56.2 µM [inhibitor, partial curve, poor fit]",
Cc1ccc(NC(=O)CSc2nc(-c3cccs3)nc3cc(=O)[nH]n23)cc1C,"inconclusive: 56.2 µM [inhibitor, partial curve, poor fit]",
Cc1ccc(C)c(N2CCN(S(=O)(=O)c3ccc(-c4cnc(C5CC5)o4)cc3)CC2)c1,"inconclusive: 31.6 µM [inhibitor, partial curve, poor fit]",
CCc1ccc(NC(=S)N(Cc2ccccc2)Cc2cccs2)cc1,,inactive: -11.3%
C=CCn1c(N)c(C(=O)NCc2ccccc2)c2nc3ccccc3nc21,"inconclusive: 50.1 µM [inhibitor, partial curve, poor fit]",
CCc1cccc(CC)c1NC(=O)C(Sc1ccccc1)c1ccccc1 (stereo unspecified),,inactive: -4.83%
COc1ccc(C(=O)/C=C/c2ccc(-c3ccc(OC)cc3)o2)cc1,,inactive: 14.1%

Structure (SMILES),Potency,"activity change, negative = inhibition"
COc1ccc(C(=O)Nc2ccc(C3(C)CC=NO3)cc2)cc1 (stereo unspecified),,inactive: 5.32%
CCn1c(=O)c2cc(C(=O)NCCCN3CCN(c4ccc(F)cc4)CC3)sc2c2ccccc21,"inconclusive: 35.5 µM [inhibitor, full curve, poor fit]",
COc1ccc(Cl)cc1C(=O)Nc1ccc2nc(Nc3cccc(Cl)c3)cc(C)c2c1,"inconclusive: 3.16 µM [inhibitor, full curve, poor fit]",
Nc1ccc2c(c1)CCC(=O)N2,,inactive: 17.7%
Cc1ccc(Cl)cc1N1CCN(C(=O)c2cc3ccc4cccnc4c3[nH]2)CC1,active: 22.4 µM,
CCn1c(=O)cc(OCC(=O)N(C)c2ccc(OC)cc2)c2ccccc21,,inactive: -25.5%
CNC(=O)C(C)OC(=O)c1nc(-c2ccccc2)oc1C (stereo unspecified),,inactive: 15%
CCCn1nc(C(=O)Oc2cc(Cl)ccc2Cl)c2ccccc2c1=O,,inactive: -10.6%
COc1ccc(C)cc1NC(=O)c1c2c(nc3ccccc13)C(=O)N(C1CCCCC1)C2,"inconclusive: 39.8 µM [inhibitor, single point]",
COc1ccc(-c2nc3ccccc3n2Cc2ccc(C(C)C)cc2)cc1,"inconclusive: 31.6 µM [inhibitor, partial curve, poor fit]",
CCCC1N=C2c3ccccc3N=C(SCC(=O)Nc3cc(OC)cc(OC)c3)N2C1=O (stereo unspecified),,inactive: -25.4%
COc1cccc(CCNC(=O)c2ccc(Cn3c(SCc4ccccc4)nc4cccnc43)cc2)c1,"inconclusive: 39.8 µM [inhibitor, partial curve, poor fit]",
Cc1cccc(-c2noc(-c3cccc(F)c3)n2)c1,,inactive: 1.56%
COc1cc2c(C(=O)N3CCN(c4cccc(Cl)c4)CC3)cn(C)c(=O)c2cc1OC,"inconclusive: 39.8 µM [inhibitor, single point]",
O=C(Nc1cccc(Br)c1)Nc1nc2c(s1)CCCCCC2,,inactive: 5.89%
COC(=O)c1ccccc1NC(=O)c1cc2ccccn2n1,"inconclusive: 3.55 µM [inhibitor, full curve, poor fit]",
CCOC(=O)C1CCC(CN(Cc2ccc(OC)cc2)S(=O)(=O)c2ccc(C)cc2)CC1 (stereo unspecified),"inconclusive: 89.1 µM [inhibitor, single point]",
CCc1ccc(CN(Cc2ccco2)c2cnc(S(C)(=O)=O)nc2C(=O)Nc2ccc(C)c(Cl)c2)cc1,"inconclusive: 63.1 µM [inhibitor, partial curve, poor fit]",
CCCC(=O)Oc1c(Sc2ccc(C)cc2)c(C)nn1-c1ccccc1,"inconclusive: 3.55 µM [inhibitor, full curve, poor fit]",
Cc1ccc(CN2CCC(CNC(=O)Nc3ccccc3F)CC2)cc1,"inconclusive: 50.1 µM [inhibitor, partial curve, poor fit]",
COc1ccccc1-c1cc(C(F)(F)F)nc(S(=O)(=O)CCCC(=O)Nc2ccccc2F)n1,"inconclusive: 2.82 µM [inhibitor, full curve, poor fit]",
COc1ccc(Cn2c(SCc3ccc(C(=O)NC4CCCCC4)cc3)nc3cccnc32)cc1,"inconclusive: 100 µM [inhibitor, single point]",
